According to PubChem BioAssay AID624417 (National Center for Advancing Translational Sciences (NCATS), 2012):
In all, about 410,000 compounds went through this assay and about 6,400 (1.6%) were called active. This list was built around the results that the source calls inconclusive (neither active nor inactive); the mix of calls is not that of the screen. The call rests on the fitted dose curve; in most records, active means well fitted inhibition curve with a large enough effect; inconclusive means small, poorly fitted or top-dose-only effect; inactive means no such curve, though single readings can be large or run the other way. Where the call is inconclusive, the potency comes from a doubtful curve fit.

Each compound was assayed against Glucagon-like peptide 1 receptor (Homo sapiens) (UniProt P43220) (assay: qHTS of GLP-1 Receptor Inverse Agonists (Inhibition Mode)). Conditions: HEK293 GLP-1R CRE-luciferase, luminescence, 24 h, GLP-1R form is constitutively active; activity change, negative = inhibition: at 38.3 µM (top of the series) unless noted.
Text: The overall goal of this project was to develop a novel assay for discovering small molecule ligands for class B1 G protein-coupled receptors (GPCRs). Very few agonists (or inverse agonists in inhibition mode) with generally weak activity for this entire group of physiologically important receptors are known to date. To establish proof-of-principle that this critical bottleneck can be overcome with a suitable screening approach, our studies focused on the class B1 receptor for glucagon-like peptide-1 (GLP-1R), a potential therapeutic target for diabetes and neurodegenerative disease. The assay was developed using a cell-based functional readout. Toward this goal, stably transfected HEK293 cell clones were established that co-express (i) a cAMP-responsive luciferase reporter gene, and (ii) constitutively active GLP-1R that upon ligand interaction inhibit (inverse agonists) the luciferase activity. In addition, two control cell lines were developed: (i) one that express only the cAMP-responsive reporter gene to enable initial exclusion of GLP-1R independent effects of candidate probes; and (ii) one with the reported gene cloned with another constitutively active orphan receptor GPR119 to enable exclusion of GLP-1R independent inhibitor effects of candidate inverse agonists. To that end, this assay was optimized for 1536-well format and screened against the MLSMR. […] NIH Molecular Libraries Probe Production Network [MLPCN] NIH Chemical Genomics Center [NCGC] Grant: NS064851 PI Name: Martin Beinborn, Tufts Medical Center
Six ul of cell suspension (200 cells/uL in DMEM + 10% Nu serum + 1% pen-strep) is dispensed in a white solid 1536-well plate. The plates are incubated for 12 hours at 37 deg C at 5% CO2 followed by addition of 23 nL compounds. After 24 hr incubation at 37 deg C and 5% CO2, 3 uL of luciferase assay detection reagent is added. A luminescence read is obtained on the PerkinElmer Viewlux after 12 min incubation at room temperature.
Further: nearly all actives have a fitted effect of over 55% in size.
On the % scale 0 is the no-effect control and ±100 the full control effect; potency means the concentration at half of the fitted maximal effect; tags describe the fitted curve by direction and shape.

Chain of UniProt P43220 (P43220 whole entry, looked up): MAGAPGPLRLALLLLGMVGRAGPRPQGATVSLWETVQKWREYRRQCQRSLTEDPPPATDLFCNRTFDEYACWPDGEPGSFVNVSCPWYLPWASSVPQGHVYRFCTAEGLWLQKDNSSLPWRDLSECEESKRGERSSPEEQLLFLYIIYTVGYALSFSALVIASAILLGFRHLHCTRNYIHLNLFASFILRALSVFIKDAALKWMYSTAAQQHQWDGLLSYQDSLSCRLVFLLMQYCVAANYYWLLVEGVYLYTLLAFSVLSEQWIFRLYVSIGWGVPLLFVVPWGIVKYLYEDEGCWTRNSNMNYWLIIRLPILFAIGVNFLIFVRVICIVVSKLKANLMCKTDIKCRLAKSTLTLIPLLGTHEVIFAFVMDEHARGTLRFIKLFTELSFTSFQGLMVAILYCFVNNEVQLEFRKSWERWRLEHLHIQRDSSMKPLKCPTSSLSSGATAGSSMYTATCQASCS

Potency, inconclusive:
COc1ccc(NC(=S)NC(NC(=O)c2ccccc2Cl)C(Cl)(Cl)Cl)c([N+](=O)[O-])c1 (stereo not drawn) 10 µM [inhibitor, partial curve, poor fit], COc1ccc(CN(C(=O)CSc2nnc(-c3c[nH]c4ccccc34)o2)c2ccc(F)cc2)cc1OC 8.91 µM [inhibitor, partial curve, poor fit], CSc1ncccc1C(=O)N1CCCC(Nc2ccc(C)c(C)c2)C1 (stereo not drawn) 31.6 µM [inhibitor, single point], O=C(NCCOc1ccccc1)c1cccc(S(=O)(=O)N2CCN(Cc3ccccc3)CC2)c1 31.6 µM [inhibitor, single point], COc1ccc(CCN(C)Cc2ccc(OCc3ccccc3)c(OC)c2)cc1OC 2.82 µM [inhibitor, partial curve, poor fit], Cc1ccc2c(c1)c1c(n2CC(O)Cn2nc(C)c(Br)c2C)CCCC1 (stereo not drawn) 14.1 µM [inhibitor, single point], CCC(OCC(O)CN1CCN(CCN2C(=O)c3cccc4cccc(c34)C2=O)CC1)c1ccccc1 (stereo not drawn) 10 µM [inhibitor, partial curve, poor fit], O=C1NC(c2ccc(-c3ccccc3[N+](=O)[O-])o2)C(C(=O)c2ccc(Cl)cc2)C(O)(C(F)(F)F)N1 (stereo not drawn) 25.1 µM [inhibitor, single point], Cc1ccc(-c2nc(Nc3cccc(O)c3)c3ccccc3n2)cc1 8.91 µM [inhibitor, partial curve, poor fit], CCCC(=O)Nc1cnc(NC(=O)c2cccc(F)c2)cc1C 7.94 µM [inhibitor, partial curve, poor fit], COc1ccc(C)cc1NC(=O)NNC(=O)C(C)Oc1ccc(F)cc1Cl (stereo not drawn) 10 µM [inhibitor, partial curve, poor fit], CCc1cccc(CC)c1N(COC)C(=O)Cn1nnc2ccccc21 12.6 µM [inhibitor, single point], CN(C1CCCCC1)S(=O)(=O)c1ccc(NC(=O)C2CCCCC2)cc1 2.51 µM [inhibitor, partial curve, poor fit], O=C1Oc2ccccc2C(=O)/C1=C/N1CCN(c2ccccc2F)CC1 3.55 µM [inhibitor, partial curve, poor fit], O=C(CCCSc1nc2ccccc2s1)NCc1ccc2c(c1)OCO2 28.2 µM [inhibitor, single point], COc1cccc(-c2nc(CS(=O)(=O)CC(=O)Nc3cc(F)ccc3F)c(C)o2)c1 28.2 µM [inhibitor, single point], COC(c1ccccc1)(c1ccccc1)C(Oc1nccc(C)n1)C(=O)O (stereo not drawn) 10 µM [inhibitor, single point], Cc1ccc(OCC(=O)N(Cc2ccco2)Cc2ccco2)cc1 12.6 µM [inhibitor, single point], Cc1[nH]c2ccc(F)cc2c(=O)c1SC(F)(F)C(F)C(F)(F)F (stereo not drawn) 28.2 µM [inhibitor, single point], CO/N=C/NC(=O)C1=NOC(CNc2ncc(C(F)(F)F)cc2Cl)C1 (stereo not drawn) 8.91 µM [inhibitor, partial curve], Cc1cc(C)cc(NC(=O)C(=O)NCCc2c[nH]c3ccccc23)c1 10 µM [inhibitor, single point], Cn1c(SCC(=O)N/N=C/c2ccc([N+](=O)[O-])s2)nnc1-c1ccccc1 28.2 µM [inhibitor, single point], CCN1C(=O)[C@H]2[C@@H](c3ccc(-c4ccc(Cl)c(Cl)c4)cc3)N[C@@](Cc3ccccc3)(C(=O)OC)[C@H]2C1=O 11.2 µM [inhibitor, partial curve, poor fit], CCC(NC(=O)c1[nH]c(C)c(C(C)=O)c1C)c1ccc(Br)cc1 (stereo not drawn) 7.94 µM [inhibitor, partial curve, poor fit], O=S(CC(O)(c1ccccc1)c1ccccc1)CC(O)(c1ccccc1)c1ccccc1 15.8 µM [inhibitor, partial curve, poor fit], Cc1ccc(Cc2c(C)nc3nc(SCC(=O)NCc4ccco4)nn3c2C)cc1 2.51 µM [inhibitor, full curve, poor fit], C=CC[C@H](CC(=O)OC(C)(C)C)C(=O)OC[C@H]1CCCN1C(=O)[C@@H](CC=C)CC(=O)N(CCO)Cc1ccccc1 10 µM [inhibitor, single point], Cc1ccc2cccnc2c1NC(=S)NC(=O)c1ccccc1 28.2 µM [inhibitor, single point], Cc1ccc(N2C(=O)c3ccccc3NC2C(C)Cc2ccc3c(c2)OCO3)cc1 (stereo not drawn) 11.2 µM [inhibitor, single point], CC1CCCC(C)N1CC(O)COc1c(F)cc(Br)cc1F (stereo not drawn) 11.2 µM [inhibitor, partial curve, poor fit]

Activity change, negative = inhibition, inactive:
Cc1cccn2c(=O)nc(SCC(=O)N3CC(C)OC(C)C3)nc12 (stereo not drawn) 35.9%, COc1cccc(C(=O)C(=O)N2CCN(C(=O)OCc3ccccc3)CC2)c1 9.4%, COc1ccc(NC(=O)N2CCN(c3cccc(C(F)(F)F)c3)CC2)cc1 -3.12%, COc1ccc(-c2cnnc(N/N=C/c3ccc(O)c(O)c3)n2)cc1 19%, COc1cc(-c2noc(-c3ccc(N4CCOCC4)c([N+](=O)[O-])c3)n2)cc(OC)c1OC 10.9%, O=C1NC[C@H](c2ccccc2)OC(=O)[C@@H](Cc2ccc(F)cc2)CC/C=C/C[C@H]1CC(=O)N(CCO)Cc1ccccc1 -1.49%, O=C(Nc1cccc(Cl)c1)C1CCCN(S(=O)(=O)c2cnc[nH]2)C1 (stereo not drawn) -11.9%, Cc1cc(C(=O)NC(=S)Nc2cccc(C(=O)O)c2C)ccc1[N+](=O)[O-] 16.8%
